A collection of fitness landscapes (doi:10.1016/j.celrep.2020.107928)
Over roughly 81,000 sequences, “one-hybrid fitness for binding parS DNA” has its median near -0.17; the highest 2% begin near 0.51. Some of the results follow.

B1: Caulobacter ParB omega fusion; a variant is named by its letters at X, in order, B8GW30 (parent)
chain: MESVVVGEPGMSEGRRGLGRGLSALLGEVDAAPAQAPGEQLGGSREAPIEILQRNPDQPRRTFREEDLEDLSNSIREKGVLQPILVRPSPDTAGEYQIVAGERAWRAAQRAGLKTVPIMVRELDDLAVLEIGIIENVQRADLNVLEEALSYKVLMEKFERTQENIAQTIGKSXSHVANXMRLLXLPDEVQSYLVSGELTAXHARAIAAAADPVALAKQIIEGGLSVRETEALARKAPNLSAGKSKGGRPPRVKDTDTQALESDLSSVLGLDVSIDHRGSTGTLTITYATLEQLDDLCNRLTRGI

Variants of: B1
Assay: one-hybrid fitness for binding parS DNA (scaled: cognate 1, non-cognate 0); higher = stronger binding
Conditions: with parS DNA site
Procedure, shortened: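 Fitness is the rescaled log change in variant-to-wild-type read ratio, measured by Illumina sequencing of plasmids before and after bacterial one-hybrid selection. The scale puts cognate at 1 and non-cognate at 0. Selection of Caulobacter ParB libraries, four specificity codons randomised, took place in E. coli USO with a HIS3 reporter, site 19 bp from the promoter, over 48 hours at 37°C on M9-minus-histidine with 0.1 mM IPTG and 5 mM 3-AT.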

Row | Variant | one-hybrid fitness for binding parS DNA
1 | AHTH | ≤ 0.2
2 | CVFT | ≤ 0.2
3 | DHQS | ≤ 0.2
4 | VCVI | ≤ 0.2
5 | DSMS | ≤ 0.2
6 | GRQK | ≤ 0.2
7 | HRGQ | 0.215
8 | VTSF | ≤ 0.2
9 | LPAF | ≤ 0.2
10 | MEQS | ≤ 0.2
11 | QSVV | ≤ 0.2
12 | KTAW | ≤ 0.2
13 | MYTA | ≤ 0.2
14 | GAAM | ≤ 0.2
15 | DVMS | ≤ 0.2
16 | LMTT | ≤ 0.2
17 | EQTG | ≤ 0.2
18 | RGCY | ≤ 0.2
19 | QEDL | ≤ 0.2
20 | GSYC | ≤ 0.2
21 | QPDP | ≤ 0.2
22 | TDPQ | ≤ 0.2
23 | VPSY | ≤ 0.2
24 | LSRV | ≤ 0.2

Row | Variant | one-hybrid fitness for binding parS DNA
25 | MSVR | ≤ 0.2
26 | HMTG | ≤ 0.2
27 | KHRH | ≤ 0.2
28 | HVRS | ≤ 0.2
29 | LYDG | ≤ 0.2
30 | PSCV | ≤ 0.2
31 | MVPV | ≤ 0.2
32 | ACNR | ≤ 0.2
33 | VNDS | ≤ 0.2
34 | VIVC | ≤ 0.2
35 | RCFC | 1.03
36 | VPAN | ≤ 0.2
37 | GKYS | ≤ 0.2
38 | RVKA | 0.756
39 | QKAI | ≤ 0.2
40 | SGPI | ≤ 0.2
41 | YHRF | ≤ 0.2
42 | TYLI | ≤ 0.2
43 | EEAM | ≤ 0.2
44 | AKVR | ≤ 0.2
45 | PFTW | ≤ 0.2
46 | GCER | ≤ 0.2
47 | RLAW | 0.232
48 | RYED | ≤ 0.2

Row | Variant | one-hybrid fitness for binding parS DNA
49 | QTCS | ≤ 0.2
50 | KQPC | ≤ 0.2
51 | HKQC | ≤ 0.2
52 | YMPR | ≤ 0.2
53 | NIIS | ≤ 0.2
54 | LNNS | ≤ 0.2
55 | HHCG | ≤ 0.2
56 | MMSV | ≤ 0.2
57 | ADWI | ≤ 0.2
58 | NVTS | ≤ 0.2
59 | NCRW | ≤ 0.2
60 | ITRV | ≤ 0.2
61 | LHER | ≤ 0.2
62 | NDGG | ≤ 0.2
63 | ESVA | ≤ 0.2
64 | PVRF | ≤ 0.2
65 | ACTM | ≤ 0.2
66 | TFKE | ≤ 0.2
67 | VATA | ≤ 0.2
68 | QSVL | ≤ 0.2
69 | FKSV | ≤ 0.2
70 | EMNT | ≤ 0.2
71 | VNMT | ≤ 0.2
72 | YRHT | ≤ 0.2

Row | Variant | one-hybrid fitness for binding parS DNA
73 | TIAV | ≤ 0.2
74 | AKGC | ≤ 0.2
75 | GNYL | ≤ 0.2
76 | LGSC | ≤ 0.2
77 | VAVI | ≤ 0.2
78 | AWRL | ≤ 0.2
79 | RMKT | 0.764
80 | VSLY | ≤ 0.2
81 | TACH | ≤ 0.2
82 | EMCS | ≤ 0.2
83 | ASLK | ≤ 0.2
84 | FDAT | ≤ 0.2
85 | SDQP | ≤ 0.2
86 | GQQS | ≤ 0.2
87 | KGDC | ≤ 0.2
88 | RPHW | ≤ 0.2
89 | PWPE | ≤ 0.2
90 | LASQ | ≤ 0.2
91 | FVLA | ≤ 0.2
92 | KQQA | ≤ 0.2
93 | GSTM | ≤ 0.2
94 | VALY | ≤ 0.2
95 | LRRC | ≤ 0.2
96 | RHVG | 0.847

Row | Variant | one-hybrid fitness for binding parS DNA
97 | TCLT | ≤ 0.2
98 | SVLT | ≤ 0.2
99 | SLPK | ≤ 0.2
100 | VDAQ | ≤ 0.2
101 | CALM | ≤ 0.2
102 | RCPS | 0.88
103 | VRRE | ≤ 0.2
104 | TGQS | ≤ 0.2
105 | RDHA | ≤ 0.2
106 | ADTG | ≤ 0.2
107 | DIIR | ≤ 0.2
108 | ILNG | ≤ 0.2
109 | TYMN | ≤ 0.2
110 | TVPY | ≤ 0.2
111 | HDRV | ≤ 0.2
112 | VRDG | ≤ 0.2
113 | QGLV | ≤ 0.2
114 | TSCV | ≤ 0.2
115 | LRYT | ≤ 0.2
116 | LICS | ≤ 0.2
117 | LNLL | ≤ 0.2
118 | ASMA | ≤ 0.2
119 | LQCC | ≤ 0.2
120 | GPKD | ≤ 0.2

Row | Variant | one-hybrid fitness for binding parS DNA
121 | AQTV | ≤ 0.2
122 | RYQH | ≤ 0.2
123 | FWYG | 0.223
124 | QAGS | ≤ 0.2
125 | HESV | ≤ 0.2
126 | PETH | ≤ 0.2
127 | RAKV | ≤ 0.2
128 | RQEP | ≤ 0.2
129 | MEPN | ≤ 0.2
130 | IAAP | ≤ 0.2
131 | LLPN | ≤ 0.2
132 | LGNA | ≤ 0.2
133 | PCQL | ≤ 0.2
134 | HTAN | ≤ 0.2
135 | LRQL | ≤ 0.2
136 | MDKT | ≤ 0.2
137 | LLPR | ≤ 0.2
138 | PKYM | ≤ 0.2
139 | SLPA | ≤ 0.2
140 | VDYG | ≤ 0.2
141 | PVKG | ≤ 0.2
142 | SVQL | ≤ 0.2
143 | APCN | ≤ 0.2
144 | HGDS | ≤ 0.2

Row | Variant | one-hybrid fitness for binding parS DNA
145 | PRAT | ≤ 0.2
146 | ILPC | ≤ 0.2
147 | SMRR | ≤ 0.2
148 | QMSY | ≤ 0.2
149 | ERYT | ≤ 0.2
150 | VAIL | ≤ 0.2
151 | KYAM | ≤ 0.2
152 | NTVR | ≤ 0.2
153 | DWAR | ≤ 0.2
154 | MEPL | ≤ 0.2
155 | TYLG | ≤ 0.2
156 | IRTK | ≤ 0.2
157 | YVNE | ≤ 0.2
158 | PSEP | ≤ 0.2
159 | LMVS | ≤ 0.2
160 | LSQK | ≤ 0.2
161 | MKVT | ≤ 0.2
162 | NGPN | ≤ 0.2
163 | TALD | ≤ 0.2
164 | MWHG | ≤ 0.2
165 | DHSP | ≤ 0.2
166 | YRCW | ≤ 0.2
167 | HSSD | ≤ 0.2
168 | PPKD | ≤ 0.2

Row | Variant | one-hybrid fitness for binding parS DNA
169 | KYCR | ≤ 0.2
170 | IEHT | ≤ 0.2
171 | LLTD | ≤ 0.2
172 | SVYT | ≤ 0.2
173 | LVHN | ≤ 0.2
174 | WARR | ≤ 0.2
175 | VRPD | ≤ 0.2
176 | RVHW | ≤ 0.2
177 | NSFG | ≤ 0.2
178 | RQYN | 0.393
179 | CVQS | ≤ 0.2
180 | SRRQ | ≤ 0.2
181 | CRFV | ≤ 0.2
182 | AHHL | ≤ 0.2
183 | QYDR | ≤ 0.2
184 | MAAG | ≤ 0.2
185 | IVAE | ≤ 0.2
186 | MNRT | ≤ 0.2
187 | PQLI | ≤ 0.2
188 | MIPK | ≤ 0.2
189 | WRGE | ≤ 0.2
190 | QETV | ≤ 0.2
191 | QYQV | ≤ 0.2
192 | YKTR | ≤ 0.2

Row | Variant | one-hybrid fitness for binding parS DNA
193 | DPES | ≤ 0.2
194 | QTLK | ≤ 0.2
195 | GLPI | ≤ 0.2
196 | KHGS | ≤ 0.2
197 | AASK | ≤ 0.2
198 | KKVS | ≤ 0.2
199 | DNMK | ≤ 0.2
200 | PASG | ≤ 0.2
201 | GVAA | ≤ 0.2
202 | GPRW | ≤ 0.2
203 | NDTN | ≤ 0.2
204 | VHPG | ≤ 0.2
205 | TQWS | ≤ 0.2
206 | ATNA | ≤ 0.2
207 | RSTF | 0.249
208 | AYSM | ≤ 0.2
209 | MNAC | ≤ 0.2
210 | ERVY | ≤ 0.2
211 | GTGS | ≤ 0.2
212 | PMCP | ≤ 0.2
213 | SRKC | ≤ 0.2
214 | PILY | ≤ 0.2
215 | CVSY | ≤ 0.2
216 | ENSV | ≤ 0.2

Row | Variant | one-hybrid fitness for binding parS DNA
217 | PVSQ | ≤ 0.2
218 | FQFS | ≤ 0.2
219 | CCWY | ≤ 0.2
220 | TLDL | ≤ 0.2
221 | RMGV | ≤ 0.2
222 | NHFG | ≤ 0.2
223 | TQKH | ≤ 0.2
224 | QCVF | ≤ 0.2
225 | LSHT | ≤ 0.2
226 | PCVT | ≤ 0.2
227 | QRRN | ≤ 0.2
228 | VITH | ≤ 0.2
229 | QETS | ≤ 0.2
230 | ISLT | ≤ 0.2
231 | MTLV | ≤ 0.2
232 | HIDS | ≤ 0.2
233 | KRHS | ≤ 0.2
234 | FNKR | ≤ 0.2
235 | TRRK | ≤ 0.2
236 | GRVG | ≤ 0.2
237 | TLTE | ≤ 0.2
238 | HMQP | ≤ 0.2
239 | QTKQ | ≤ 0.2
240 | VMFR | ≤ 0.2

Row | Variant | one-hybrid fitness for binding parS DNA
241 | AAWS | ≤ 0.2
242 | PYHR | ≤ 0.2
243 | DMWS | ≤ 0.2
244 | EQMR | ≤ 0.2
245 | TNED | ≤ 0.2
246 | FPCC | ≤ 0.2
247 | LATW | ≤ 0.2
248 | KDHR | ≤ 0.2
249 | VVVF | ≤ 0.2
250 | CNTV | ≤ 0.2
251 | PEVR | ≤ 0.2
252 | RWCD | ≤ 0.2
253 | LRAS | ≤ 0.2
254 | DPWS | ≤ 0.2
255 | RHSH | ≤ 0.2
256 | MDNG | ≤ 0.2
257 | WRKG | ≤ 0.2
258 | EAVG | ≤ 0.2
259 | QVFG | ≤ 0.2
260 | GVNT | ≤ 0.2
261 | IAPH | ≤ 0.2
262 | ALEW | ≤ 0.2
263 | PYAT | ≤ 0.2
264 | CREE | ≤ 0.2

Row | Variant | one-hybrid fitness for binding parS DNA
265 | TCEG | ≤ 0.2
266 | RGGL | ≤ 0.2
267 | PVWW | ≤ 0.2
268 | RFDN | 0.354
269 | NFHF | ≤ 0.2
270 | NHLA | ≤ 0.2
271 | TDDD | ≤ 0.2
272 | VVAG | ≤ 0.2
273 | PKQR | ≤ 0.2
274 | NCVD | ≤ 0.2
275 | LLIT | ≤ 0.2
276 | GDNI | ≤ 0.2
277 | RLTN | 0.43
278 | TRMG | ≤ 0.2
279 | KWMG | ≤ 0.2
280 | LPTV | ≤ 0.2
281 | QGVS | ≤ 0.2
282 | NTWG | ≤ 0.2
283 | RHHQ | ≤ 0.2
284 | KTKS | ≤ 0.2
285 | ILYC | 0.39
286 | SYIV | ≤ 0.2
287 | PGNC | ≤ 0.2
288 | NKLS | ≤ 0.2

Row | Variant | one-hybrid fitness for binding parS DNA
289 | LKPE | ≤ 0.2
290 | LALP | ≤ 0.2
291 | VAFA | ≤ 0.2
292 | PYAS | ≤ 0.2
293 | YRHW | ≤ 0.2
294 | WQAR | ≤ 0.2
295 | DCDD | ≤ 0.2
296 | WRVA | ≤ 0.2
297 | TFGC | ≤ 0.2
298 | RNEC | 0.613
299 | RKYY | 0.377
300 | CHHF | ≤ 0.2
301 | DGMR | ≤ 0.2
302 | RQTN | 0.43
303 | KVAV | ≤ 0.2
304 | CSKY | ≤ 0.2
305 | TAPH | ≤ 0.2
306 | NADD | ≤ 0.2
